# Measurements as given in paper PMC4336329 (PLoS ONE, 2015).
# Among all 310,000 compounds or so, about 2,200 (0.71%) showed an effect of 50% or more. The effect is printed as a negative number. This is one part of the list.
# Target: human ether-à-go-go-related gene (hERG) potassium channel (human, UniProt Q12809)
# Test: primary screen, population patch clamp on CHO cells stably expressing hERG
# human ether-à-go-go-related gene (hERG) potassium channel, sequence (Q12809 whole entry, looked up): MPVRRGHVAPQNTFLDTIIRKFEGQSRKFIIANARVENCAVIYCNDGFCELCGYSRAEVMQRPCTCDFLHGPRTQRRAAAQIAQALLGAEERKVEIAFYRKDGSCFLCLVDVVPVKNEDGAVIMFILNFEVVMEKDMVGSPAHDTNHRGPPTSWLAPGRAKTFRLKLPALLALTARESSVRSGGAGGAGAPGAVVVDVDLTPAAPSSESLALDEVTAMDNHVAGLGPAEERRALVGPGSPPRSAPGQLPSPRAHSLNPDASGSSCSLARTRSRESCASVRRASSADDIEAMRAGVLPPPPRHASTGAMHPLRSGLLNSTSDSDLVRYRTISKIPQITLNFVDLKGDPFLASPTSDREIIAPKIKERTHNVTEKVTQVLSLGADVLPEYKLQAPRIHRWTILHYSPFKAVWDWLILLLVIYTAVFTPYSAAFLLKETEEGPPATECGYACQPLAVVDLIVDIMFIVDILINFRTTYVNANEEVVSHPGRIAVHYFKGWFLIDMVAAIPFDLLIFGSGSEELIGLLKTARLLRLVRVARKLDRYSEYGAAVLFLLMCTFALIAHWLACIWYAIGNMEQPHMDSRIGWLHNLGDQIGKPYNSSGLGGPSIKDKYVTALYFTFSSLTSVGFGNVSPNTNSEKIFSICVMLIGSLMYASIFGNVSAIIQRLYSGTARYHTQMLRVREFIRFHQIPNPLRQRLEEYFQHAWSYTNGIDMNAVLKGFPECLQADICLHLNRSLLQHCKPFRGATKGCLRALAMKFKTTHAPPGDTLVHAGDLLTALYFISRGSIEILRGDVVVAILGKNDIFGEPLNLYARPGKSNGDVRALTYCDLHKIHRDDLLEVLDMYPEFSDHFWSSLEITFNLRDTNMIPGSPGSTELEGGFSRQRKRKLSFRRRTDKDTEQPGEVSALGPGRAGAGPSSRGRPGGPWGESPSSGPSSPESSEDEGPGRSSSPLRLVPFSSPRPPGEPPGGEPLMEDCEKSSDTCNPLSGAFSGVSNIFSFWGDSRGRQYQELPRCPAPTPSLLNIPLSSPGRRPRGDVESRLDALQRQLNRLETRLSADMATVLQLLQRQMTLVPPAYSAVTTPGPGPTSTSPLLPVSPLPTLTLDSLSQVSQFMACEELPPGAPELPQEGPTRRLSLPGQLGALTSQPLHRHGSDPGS
row,Compound,"hERG current change (%, negative = inhibition) at 1uM [%]"
1,COc1ccc(C(=O)[C@@H]2CC[C@](C)(C(=O)O)C2(C)C)cc1,13.5
2,Cc1cc(C)c(C2C(C#N)=C(N)Oc3n[nH]c(C)c32)cc1CN1CCOCC1 (centres unmarked),-15.5
3,COc1ccc(S(=O)(=O)N2CCC(NC(=O)N3CCOCC3)CC2)cc1,3.77
4,O=S(=O)(Cc1ncc(C(F)(F)F)cc1Cl)c1ccccc1,11
5,Nn1c(SCc2ccccc2)nnc1-c1ccco1,13.8
6,CN(Cc1ccco1)C(=O)c1c[nH]c2ccc(S(=O)(=O)Nc3ccc4c(c3)OCCO4)cc2c1=O,-7.09
7,Cc1cc(OCC(=O)N2CCC(C(=O)O)(c3ccccc3)CC2)c2c(C)cc(=O)oc2c1,4.39
8,Cc1c(C(c2ccccc2Cl)c2c(O)c3ccccc3oc2=O)c(=O)n(-c2ccccc2)n1C (centres unmarked),14.9
9,O=C(N/N=C/c1ccc(OC(=O)c2ccc(Br)cc2)cc1)c1ccncc1,9.74
10,O=c1cc(CN2CCN(Cc3ccccc3)CC2)c2cc3c(cc2o1)CCC3,-6.66
11,CN(Cc1ccccc1)C(=O)CN1C(=O)c2ccccc2C1=O,9.54
12,CC(=O)N(C(C)=O)N1C(=O)/C(=C/c2ccc(Cl)cc2)SC1=S,5.13
13,O=C1CCCC2=C1C(c1ccncc1)c1c(nc(SCc3ccccc3)[nH]c1=O)N2 (centres unmarked),14.1
14,Cn1c(Cc2ccccc2)nnc1SCc1ccc(C(=O)O)cc1,1.26
15,CCC(CC)C(=O)NCc1ccc(Cl)cc1,6.62
16,O=C(Nc1cccc(S(=O)(=O)N2CCOCC2)c1)c1ccc(Cl)c([N+](=O)[O-])c1,10.6
17,Cc1ccc(Cn2cnc3c(nnn3Cc3ccc(Cl)cc3)c2=O)cc1,0.735
18,COCc1cc(C)nc(SC)c1C#N,13.7
19,Cc1cccn2c(CNCC3(c4ccccc4)CCCC3)c(C(=O)N3CCOCC3)nc12,7.59
20,COc1ccc2[nH]c3c(N4CCN(Cc5ccc6c(c5)OCO6)CC4)ncnc3c2c1,-1.31
21,CCN(C(=S)Nc1ccccc1F)C1CCCCC1,5.34
22,Cc1cc(C)c(NC(=O)COc2cccnc2[N+](=O)[O-])c(C)c1,11.8

row,Compound,"hERG current change (%, negative = inhibition) at 1uM [%]"
1,CC1(C)CC(=O)C2=C(C1)N(Cc1ccco1)C(=O)C2(NC(=O)c1ccc(Cl)cc1Cl)C(F)(F)F (centres unmarked),6.14
2,CCC1(C)N=C(c2ccc3c(c2)OCO3)CC(c2ccccc2O)N1 (centres unmarked),11.9
3,CCc1ccccc1NC(=O)c1ccccc1N1C(=O)C2C3C=CC(C3)C2C1=O (centres unmarked),11.3
4,Cc1cccc(N2C(=O)C3C(c4ccccc4)OC4(C(=O)c5ccccc5C4=O)C3C2=O)c1 (centres unmarked),14.1
5,COC(=O)C1=C(N)Oc2cc(C)n(Cc3cccnc3)c(=O)c2C1c1ccccc1OC (centres unmarked),1.51
6,Cc1cc(C)cc(Oc2coc3cc(OC(=O)c4cccs4)ccc3c2=O)c1,1.32
7,Cc1ccc(C(=O)N2CCN(c3ccc([N+](=O)[O-])c(NCc4cccnc4)c3)CC2)cc1,-4.13
8,CC1(C(=O)N2CC3(CC(c4cccc([N+](=O)[O-])c4)=NO3)C[C@H]2C(=O)NCC(N)=O)CC1 (some centres unmarked),0.396
9,Cc1ccc(NS(=O)(=O)c2ccc(NC(=O)C3CC3)cc2)c(C)c1,8.67
10,C/C(=N\Nc1nc(C(C)(C)C)cs1)c1ccc(O)cc1,8.06
11,O=C(CC1CCCCC1)NCCCN1CCOCC1,12.9
12,Cc1ccc(S(=O)(=O)NCCC(=O)N2CCOCC2)cc1C,-6.51
13,COc1cc(CNCCNCC(C)O)ccc1OCc1ccc(Cl)nc1 (centres unmarked),-2.27
14,Cc1ccc(NC(=O)CCNS(=O)(=O)c2ccc3c(c2)oc(=O)n3C)c(C)c1,12.2
15,COc1ccc(/C=C2\SC(=S)N(CCCC(=O)N3CCOCC3)C2=O)cc1OC,11.4
16,Cc1ccc2cc(/C=C(\C#N)C(N)=O)c(N3CCCCC3)nc2c1,7.19
17,CCN(CC)S(=O)(=O)c1ccc(C(=O)Oc2cc(C)[nH]c(=O)c2[N+](=O)[O-])cc1,1.39
18,Cc1ccc(CNC(=O)Cc2noc3ccccc23)cc1,11.4
19,O=C(Nc1ccc2c(c1)C(=O)N(CC1CCCO1)C2=O)c1cccc(Br)c1 (centres unmarked),-15.2
20,CCN(CC)c1ccc(/C=N/NS(=O)(=O)c2ccc(CNC(C)=O)cc2)cc1,17.8
21,CCOc1ccc(NC(=O)CCSc2nnc(C)s2)cc1,-6.56
22,COc1cccc(-c2nc3ccccc3s2)c1O,9.86

row,Compound,"hERG current change (%, negative = inhibition) at 1uM [%]"
1,CCOC(=O)Cc1cc(=O)n2[nH]c(-c3ccc(Cl)cc3)cc2n1,-0.958
2,O=C(Nc1ccc(N2CCN(C(=O)c3ccco3)CC2)cc1)c1ccc(Br)cc1,13.1
3,COC(=O)c1cccc(S(=O)(=O)N2CCC(C)CC2)c1,8.09
4,CCCNC(=O)Cn1c2ccccc2c2nc(=O)cc(C)n21,11.7
5,O=C(Nc1ccc(N2CCCC2)c(Cl)c1)c1cccc(-c2cc3ccccc3oc2=O)c1,6.86
6,Fc1cccc(CSc2nnc3c(n2)[nH]c2ccccc23)c1,12
7,CCCc1cc(=O)[nH]c(SCC(=O)N2CCN(S(=O)(=O)c3ccccc3)CC2)n1,11.9
8,O=C(CSc1nc2ccccc2c(=O)[nH]1)Nc1ccc(S(=O)(=O)N2CCCC2)cc1,7.16
9,CCn1c(-c2ccco2)nc2ccccc21,4.95
10,O=C(COC(=O)c1ccc(S(=O)(=O)NCc2ccco2)cc1)Nc1ncc(Cl)cc1Cl,11.8
11,O=C(NCc1ccc(F)cc1)c1cc2ccccn2n1,11.3
12,O=C(CC1C(=O)NCCN1CC1CCCCC1)NCc1ccc(Cl)cc1 (centres unmarked),6.4
13,COCCn1nnnc1C(c1ccc(O)c(OC)c1)N1CCc2ccccc2C1.Cl (centres unmarked),15.8
14,O=C(COC(=O)[C@@H]1CC(O)CN1S(=O)(=O)c1ccccc1[N+](=O)[O-])c1ccccc1 (some centres unmarked),3.42
15,COC(=O)CNC(=O)C1CCN(C(=O)OCc2ccccc2)CC1,9.41
16,COc1ccc(OC)c2c(N3CC(C)OC(C)C3)cc(C(F)(F)F)nc12 (centres unmarked),-1.92
17,O=C(Nc1nccs1)c1cncc(Br)c1,-0.0574
18,COc1cc2c(OC)cccc2cc1C(=O)O,10.3
19,O=C(CC(c1ccc(F)cc1)c1ccco1)Nc1nccs1 (centres unmarked),12.5
20,CCOC(=O)Cn1nc(C)c(NC(=O)COc2ccc(OC)cc2)c1C,4.48
21,Cc1ccc(N(C(C)C(=O)Nc2c(C)n(C)n(-c3ccccc3)c2=O)S(C)(=O)=O)cc1C (centres unmarked),12.6
22,c1ccc2c(c1)OCc1cn[nH]c1-2,13.6

row,Compound,"hERG current change (%, negative = inhibition) at 1uM [%]"
1,CC(=O)c1cccc(CN2CCN(CC=C(C)C)C(CCO)C2)c1 (centres unmarked),6.3
2,O=C(O)C1C2CCC(O2)C1C(=O)Nc1ccc(Cl)cc1 (centres unmarked),11.3
3,C=CCn1c(C)cc(C)c(C#N)c1=O,15.3
4,Cc1ccc(C(=O)N/C(=C\c2sccc2C)C(=O)NCCCN2CCOCC2)cc1,9.15
5,Cc1nn(CCCC(=O)NC(C)c2ccccc2)c(=O)c2nn(-c3ccccc3)c(C)c12 (centres unmarked),0.213
6,COc1cccc(Nc2nc(-c3sc(NC(=O)c4ccco4)nc3C)cs2)c1,14.9
7,O=C(NCCOc1cccc2cccnc12)c1cccs1,-6.26
8,CCOc1cc(/C=N/NC(=O)CN(CCc2ccccc2)S(=O)(=O)c2ccc(NC(C)=O)cc2)ccc1O,6.73
9,O=C(COc1ccc(F)cc1Br)N1CCN(c2ncccn2)CC1,-1.5
10,O=[N+]([O-])c1ccc(NCCCNS(=O)(=O)c2ccccc2)cc1,-14.8
11,CC1CCCCN1CCNC(=O)c1cc2c(=O)n(C)c3ccccc3c2n1C (centres unmarked),3.94
12,COc1ccc(C2CC(c3ccc(F)cc3)=NN2c2ccccc2)cc1OC (centres unmarked),10.8
13,CCCN(C(=O)CSCc1ccc(Cl)cc1)c1c(N)n(Cc2ccccc2)c(=O)[nH]c1=O,14.4
14,COc1ccc2cc(CCNC(=O)c3ccc(S(=O)(=O)N4CCOCC4)cc3)c(=O)[nH]c2c1,3.69
15,Cc1cc(C)cc(NC(=O)C2CCCN2/C=C/C(=O)C(F)(F)F)c1 (centres unmarked),8.06
16,COc1ccc(C(=O)COC(=O)CCc2ccccc2)cc1,13.6
17,CCOC1(OCC)N=C(N)C2(C#N)C(c3cccc(C)c3)C12C#N (centres unmarked),8.98
18,Cc1ccccc1CNS(=O)(=O)c1c(C(=O)N2CCCCC2)c(C)n(C)c1C,7.46
19,COc1ccccc1N(CC(=O)NCCSCc1ccccc1Cl)S(C)(=O)=O,2.69
20,COc1ccc(/C=C2\N=C(C)N(c3ccc(C(=O)O)cc3)C2=O)cc1OC,16.2
